This is one part of the list.

B1: PhoQ; a variant is named by its letters at X, in order, P23837 (parent)
chain: MKKLLRLFFPLSLRVRFLLATAAVVLVLSLAYGMVALIGYSVSFDKTTFRLLRGESNLFYTLAKWENNKLHVELPENIDKQSPTMTLIYDENGQLLWAQRDVPWLMKMIQPDWLKSNGFHEIEADVNDTSLLLSGDHSIQQQLQEVREDDDDAEMTHSVAVNVYPATSRMPKLTIVVVDTIPVELKSSYMVWSWFIYVLSANLLLVIPLLWVAAWWSLRPIEALAKEVRELEEHNRELLNPATTRELTSLVRNLNRLLKSERERYDKYRTTLTDLTHSLKTPLXXLQXXLRSLRSEKMSVSDAEPVMLEQISRISQQIGYYLHRASMRGGTLLSRELHPVAPLLDNLTSALNKVYQRKGVNISLDISPEISFVGEQNDFVEVMGNVLDNACKYCLEFVEISARQTDEHLYIVVEDDGPGIPLSKREVIFDRGQRVDTLRPGQGVGLAVAREITEQYEGKIVAGESMLGGARMEVIFGRQHSAPKDE

The experiment covers variants of B1. Put plainly: enrichment ratio after two sorts for PhoP signalling (ratio (wild type AVST 3.29)); higher = more functional. As to conditions: with PhoP (E. coli).
In the case of NDGP, the enrichment ratio is at most 0.25.
The value for DPCS was at most 0.25; that for YGKG was at most 0.25.
As to MVKR, the enrichment ratio is at most 0.25.
Consider ANMS, for which the enrichment ratio turned out to be 11.6.
KQPR: the enrichment ratio was at most 0.25.
With TFVE, the enrichment ratio is at most 0.25.
The value for IRWN was at most 0.25; that for QGKH was at most 0.25.
Regarding FKHH, the enrichment ratio was at most 0.25.
Turning to NYGS, the enrichment ratio was at most 0.25.
For HHIY, the enrichment ratio was at most 0.25.
For the variant LDKQ, the enrichment ratio is at most 0.25.
The value for PKAT was at most 0.25.
WVQW: the enrichment ratio was at most 0.25.
Turning to WKSG, the enrichment ratio was at most 0.25.
As to LDTY, the enrichment ratio was at most 0.25.
The result for KTIP reads at most 0.25.
The result for YHVL reads at most 0.25; that for DMVR, at most 0.25; that for NPAY, at most 0.25.
The value for PLDY was at most 0.25.
For PMRR, the enrichment ratio was at most 0.25.
VHRT: the enrichment ratio was at most 0.25.
For the variant VQAQ, the enrichment ratio is at most 0.25.
The value for MEHG was 11.9.
The result for FCIN reads at most 0.25; that for TAHS, 5.23; that for LMFK, at most 0.25.
The result for PIHH reads at most 0.25; that for LDKV, at most 0.25.
Regarding FGMQ, the enrichment ratio is 21.1.
The value for FGLQ was 9.95; that for VWVW was at most 0.25; that for FVGN was at most 0.25.
The result for NYSN reads at most 0.25.
As to KHFF, the enrichment ratio is at most 0.25.
The value for GEAF was at most 0.25; that for LEWL was at most 0.25.
The value for SRWD was at most 0.25; that for QADL was 10.3.
For the variant DDFH, the enrichment ratio was at most 0.25.
AKYV: the enrichment ratio is at most 0.25.
The value for LGAY was at most 0.25; that for TWLQ was at most 0.25.
The value for MDAE was at most 0.25.
The value for VMNH was at most 0.25; that for ITRF was at most 0.25; that for RRAF was at most 0.25.
On to FYWG, for which the enrichment ratio is at most 0.25.
The result for FKKL reads at most 0.25; that for MMYD, 5.08; that for LDCW, at most 0.25.
The value for WQMP was at most 0.25.
The value for HDFS was at most 0.25; that for FWQN was at most 0.25; that for SLFG was at most 0.25.
As to PKVI, the enrichment ratio was at most 0.25.
GGMH: the enrichment ratio is 4.91.
The result for IPYD reads at most 0.25; that for ADQK, at most 0.25; that for WHYV, at most 0.25.
The value for RVLQ was at most 0.25; that for MSFL was 13.3.
The value for IPPS was at most 0.25.
As to HICI, the enrichment ratio was at most 0.25.
The value for DIDQ was at most 0.25.
The value for LSQE was at most 0.25; that for PSWK was at most 0.25; that for NQIG was at most 0.25.
The result for ARGF reads at most 0.25.
For AGCF, the enrichment ratio is 5.18.
In the case of SERV, the enrichment ratio was at most 0.25.
VLKP: the enrichment ratio is at most 0.25.
The value for LSVG was at most 0.25; that for YIRM was at most 0.25; that for YKKA was at most 0.25.
For the variant HAYD, the enrichment ratio is at most 0.25.
The value for RIVA was at most 0.25; that for LYTR was at most 0.25; that for QRHG was at most 0.25.
The value for WVPK was at most 0.25; that for NSFY was at most 0.25.
Take YSMG: the enrichment ratio was 4.24.
For NKSP, the enrichment ratio is at most 0.25.
The result for GWCM reads at most 0.25; that for PWSI, at most 0.25; that for VREK, at most 0.25.
As for AACG, the enrichment ratio was 9.08.
The value for IKGF was at most 0.25.
The value for GVVW was at most 0.25; that for TMIC was at most 0.25; that for SMRP was at most 0.25.
The value for GLGS was at most 0.25; that for IYRD was at most 0.25; that for DCWC was at most 0.25.
On to AGHY, for which the enrichment ratio was at most 0.25.
The result for FAVL reads 1.43; that for APCE, at most 0.25.
The result for APIG reads at most 0.25; that for WDQC, at most 0.25.
The result for SGRM reads at most 0.25.
With PQKV, the enrichment ratio was at most 0.25.
Turning to DDMN, the enrichment ratio was at most 0.25.
The result for RFCN reads at most 0.25; that for QSVK, at most 0.25.
The value for ILTH was at most 0.25; that for GNRC was at most 0.25; that for VWNW was at most 0.25.
The result for YYDN reads at most 0.25; that for DFNC, at most 0.25; that for SNYL, at most 0.25.
For the variant FTSG, the enrichment ratio is at most 0.25.
The result for PAKP reads at most 0.25.
In the case of GTPH, the enrichment ratio is at most 0.25.
The result for QTPE reads at most 0.25; that for VTHY, at most 0.25; that for ATSA, 3.61.
The result for SACC reads 5.72; that for WPLD, 0.253; that for TYWI, at most 0.25.
As for SIPF, the enrichment ratio was at most 0.25.
The value for HQQA was at most 0.25; that for LGAK was at most 0.25; that for PQWY was at most 0.25.
With HPVP, the enrichment ratio was at most 0.25.
As to VKLI, the enrichment ratio was found to be 0.328.
The value for FYSF was at most 0.25; that for YDLM was at most 0.25; that for MANH was at most 0.25.
The result for MLMN reads at most 0.25; that for VTAQ, at most 0.25.
The result for KCWN reads at most 0.25; that for MEKW, at most 0.25; that for HWTI, at most 0.25.
For the variant AFTV, the enrichment ratio was at most 0.25.
Take PLWV: the enrichment ratio was at most 0.25.
As to TVMY, the enrichment ratio is at most 0.25.
The result for MQEY reads at most 0.25; that for EIPL, at most 0.25.
The value for MDIE was at most 0.25; that for TWSQ was at most 0.25.
The value for QLPE was at most 0.25; that for MMRC was at most 0.25; that for KFAR was at most 0.25.
For VMNY, the enrichment ratio was at most 0.25.
The value for NWMG was at most 0.25.
The value for ILQH was at most 0.25.
The value for PTIN was at most 0.25; that for WHLE was at most 0.25; that for NWTQ was at most 0.25.
As for PRVV, the enrichment ratio was at most 0.25.
Consider GHMR, for which the enrichment ratio is at most 0.25.

Source of the values: a collection of fitness landscapes (doi:10.1126/science.1257360).
